Several values for one entry are separate records, joined by “and”; a condition that tells them apart may be missing. Identical values can stand only once.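 48-hour exposure; five concentrations; linearly interpolated endpoints. GI50: concentration for 50% inhibition of growth. TGI is the concentration that stops growth completely.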
system: NCI-H322M lung; assay: inhibition of tumour cell growth, NCI panel, 48 h

Row | SMILES | TGI | GI50
1 | Cc1nc(-c2cc3ccccc3oc2=O)cs1 | > 100 µM | –
2 | COc1cccc(C2c3cc4c(cc3OC(Nc3ccccc3)C2C)OCO4)c1O (stereo not given) | 49.4 µM | –
3 | CCCCCC(=O)Nc1nc2nc[nH]c2c(=O)[nH]1 | > 100 µM | –
4 | NC(=O)c1ccc(Oc2nccc(-c3c(-c4ccc(F)cc4)ncn3C3CCNCC3)n2)cc1 | > 25 µM | > 25 µM
5 | Cc1ccc(C)c(N2C(=O)C(=O)C(c3nc4ccccc4o3)C(=O)C2=O)c1 | > 100 µM | –
6 | CCCCCCCC1(c2ccc(N)cc2)CCC(=O)NC1=O (stereo not given) | > 100 µM | –
7 | O=C(C(=O)n1ncc(Cl)c(Cl)c1=O)n1ncc(Cl)c(Cl)c1=O | > 100 µM | –
8 | COc1ccc(C(=O)c2cc(C)c(OC)c(C)c2)c(OC)c1NC(C)=O | > 100 µM | 0.172 µM
9 | O=c1c2ccccc2nc2ccc3c(Cl)[nH][nH]c3c12 | > 100 µM | –
10 | CC1=C(SC#N)S(=O)(=O)N(c2ccccc2)C(C)=C1SC#N | > 100 µM | –
11 | CCOC(=O)C1=C(O)c2ccc(C)cc2C(=O)C1=O | > 100 µM | –
12 | O=C(O)CCNS(=O)(=O)c1ccc2ccccc2c1 | > 100 µM | –
13 | CN(C)CCCn1c(=O)c2ccccc2c2cnc3[nH]ccc3c21 | 13.2 µM | 1.83 µM
14 | CCOC(=O)CCC(C(=O)OCC)n1nnc2cc(Nc3c(C)[n+]([O-])c4cc(F)c(OCC)cc4[n+]3[O-])ccc21 (stereo not given) | > 100 µM | –
15 | COc1ccc(-c2ccc(/C=N/n3c(COc4ccccc4Cl)nn(CN4CCOCC4)c3=S)o2)c([N+](=O)[O-])c1 | 61.7 µM | 21 µM
16 | Cc1cc(S(=O)(=O)/N=C(/NN)Nc2ccc(Cl)cc2)c(S)cc1Cl | 34.7 µM | –
17 | COc1nc(C#CC2CCCCC2)nc(OC)n1 | 24.6 µM | –
18 | O=C(O)/C(Cc1ccnc2ccccc12)=N\O | > 100 µM | –
19 | COc1ccccc1C1C(C#N)=C(N)Oc2n[nH]c(C)c21 (stereo not given) | > 100 µM | > 100 µM
20 | CCC[CH2][Sn]([CH2]CCC)([S]C#N)[S]C#N | 3.77 µM | 1.93 µM
21 | CNCCCNc1nc2ccccc2c2c(=O)c3cc(OC)ccc3sc12 | 3.37 µM | 1.74 µM
22 | CCOC(=O)c1cc(Br)c(-c2onc(C)c2Br)[nH]1 | > 100 µM | –
23 | CC1OC(=O)C(O)=C1O (stereo not given) | > 100 µM | –
24 | COc1ccc(-c2cc3c(C)nc(N)nc3n(C3CCC(OCCO)CC3)c2=O)cn1 (stereo not given) | 0.885 µM and 0.525 µM | 0.108 µM and 0.0604 µM
25 | CCCc1cc(=O)n2c(C(=O)Nc3ccc(F)cc3)c(C(=O)Nc3ccc(F)cc3)sc2n1 | > 160 µM | 152 µM

Row | SMILES | TGI | GI50
26 | CCCOC(=O)c1c(C)n(C)c2scc[n+]12 | > 100 µM | > 100 µM
27 | N#CC1=C(N)Oc2c(ccc3ccccc23)C1c1cc(=O)oc2ccc(Cl)cc12 (stereo not given) | > 100 µM | 4.9 µM
28 | CS(=O)(=O)c1ccc(Nc2nc(N[C@H]3CCCC[C@H]3N)nc3cc[nH]c(=O)c23)cc1 | 9.91 µM | 2.72 µM
29 | CCCCCCCCC#CCCCCCCCCCC[C@@H]1C(=O)O[C@H](C)[C@@H]1O (tested in a mixture with another compound) | > 100 µM | –
30 | O=C(NCCCc1cn[nH]c1)c1ccc(-c2ccncc2)c(C#Cc2ccc(F)cc2)c1 | > 100 µM | 23.5 µM
31 | O=[N+]([O-])/C(C(Cl)=C(Cl)Cl)=C(/Nc1cccc2cccnc12)n1nnc2ccccc21 | 48.4 µM | –
32 | Cn1c(=O)sc2cc(C(=S)N3CCCCC3)ccc21 | > 100 µM | –
33 | N/C(=N\N=C\c1ncccc1O)NO | > 100 µM | –
34 | CC(C)c1cccc(C(C)C)c1N1C(=O)C(=O)C(c2nc3ccccc3o2)C(=O)C1=O | > 100 µM | –
35 | O=C1C2C=CC(n3[nH]c(=O)n(Cc4ccccc4)c3=O)CC2C(=O)N1c1ccc(Br)cc1 (stereo not given) | > 100 µM | –
36 | C#CC1=CC(=O)C(OC)=CC1=O | > 100 µM | –
37 | Nc1nc2c(C(=O)NCc3cccs3)nnn2c2cccc(Cl)c12 | > 100 µM | –
38 | Cc1ncc(COP(=O)(O)O)c(/C=C2\SC(=S)NC2=O)c1O | > 100 µM | –
39 | CCOc1cc2c(cc1O)C(O)C[C@@H]1[C@@H]2CC[C@]2(C)[C@@H](O)CC[C@@H]12 (stereo not given in full) | > 100 µM | –
40 | O=C(NCC(F)(F)F)Nc1cccc(-c2cnc3cc(-c4ccc(F)cc4)ccn23)c1 | > 69.4 µM | 4.5 µM
41 | Clc1ccc(-c2c3ccc(=[N+]4CCCCC4)cc-3oc3cc(N4CCCCC4)ccc23)cc1 | 0.302 µM | 0.0651 µM
42 | C1CCCCc2nc3c(nc2CCC1)c1nc2c(nc1c1nc4c(nc31)CCCCCCCC4)CCCCCCCC2 | > 100 µM | –
43 | CCOC(=O)/C(=C/c1cccc(Cl)c1)N(CC)CC | > 100 µM | –
44 | C=C1CC(C)(c2cccc(Nc3nc4ccccc4c4occc34)c2)OC1=O (stereo not given) | 49.5 µM | –
45 | CCOC1=C(c2ccccc2)N2CCCCC2O1 (stereo not given) | > 100 µM | –
46 | COc1ccccc1NC(=O)CC(=O)NN | > 100 µM | –
47 | Cc1nc(Nc2ccccc2Cl)sc1C(=O)CC(=O)C(N)=O | > 100 µM | –
48 | NC(=O)CN1C=CCC(C(N)=O)=C1 | > 100 µM | –
49 | Oc1ccc(-c2nc3ccccc3s2)cc1 | > 100 µM | –
50 | C=C1C(C)C2C(Cc3ccccc3)NC(=O)C23OC(=O)/C=C\CC(=O)CCC(C)C/C=C/C3C1O (stereo not given) | 21.6 µM | –

Source: PubChem BioAssay (NCI)
